Source: PubChem BioAssay AID743262 (National Center for Advancing Translational Sciences (NCATS), 2014)
Screen size: about 1,300 compounds; about 25 (2%) were called active. Inconclusive results (about 9%) are left out. Calls come from the whole dose curve; as a rule, active = well fitted activation curve with a large enough effect; inconclusive = small, poorly fitted or top-dose-only effect; inactive = flat fitted curve, though single readings scatter. This is one part of the list.

Each compound was assayed against Glucagon-like peptide 1 receptor (Homo sapiens) (UniProt P43220) (assay: qHTS of GLP-1 Receptor Agonists: Hit Validation). Conditions: HEK293 GLP-1R, cAMP-response luciferase, 4-6 h; series mostly up to 46.1 µM; activation: at the top concentration.
How it was run: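 HEK293 cells stably co-expressing a cAMP-responsive luciferase reporter and GLP-1R (hypersensitive receptor for weak agonists; wild-type line for confirmation) were plated 12 h at 37 °C, exposed to compound 4-6 h, then read by luminescence after 12 min detection reagent.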
Potency is the fitted concentration of half-maximal effect.
Throughout, for activation: % of control where 0% means no effect.

Sequence of UniProt P43220 (P43220 whole entry, looked up): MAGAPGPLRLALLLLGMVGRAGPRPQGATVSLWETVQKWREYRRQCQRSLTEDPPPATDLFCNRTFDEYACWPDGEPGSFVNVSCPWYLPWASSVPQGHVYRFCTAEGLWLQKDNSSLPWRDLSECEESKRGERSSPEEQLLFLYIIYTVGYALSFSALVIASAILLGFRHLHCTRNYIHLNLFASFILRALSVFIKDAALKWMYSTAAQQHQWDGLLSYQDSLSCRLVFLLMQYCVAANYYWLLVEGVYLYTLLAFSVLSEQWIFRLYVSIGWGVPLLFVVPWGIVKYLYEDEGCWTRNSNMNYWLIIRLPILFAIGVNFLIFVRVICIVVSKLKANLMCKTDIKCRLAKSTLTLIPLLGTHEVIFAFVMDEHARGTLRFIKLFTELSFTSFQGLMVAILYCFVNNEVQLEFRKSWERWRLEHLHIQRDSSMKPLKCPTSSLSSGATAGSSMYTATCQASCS

activation, inactive:
COc1ccccc1-c1nnc(SCC(=O)OC(C)C)o1 2.17%, CN(C)S(=O)(=O)c1ccc(Cl)c(NC(=O)CN2CCC(Cc3ccccc3)CC2)c1 3.45%, CC(=O)c1ccsc1-c1c(C)cc2oc(=O)cc(-c3ccccc3)c2c1C 14.2%, Cn1ncc2c(Nc3ccccc3Cl)nc(Nc3ccccc3Cl)nc21 25.8%, CC(=O)C(C)Oc1ccc2c3c(c(=O)oc2c1C)CCCC3 (configuration not stated) 15.1%, CNS(=O)(=O)c1cc(NC(=O)c2cccc3cccnc23)ccc1C 12.5%, O=C1Nc2ccccc2C1Cc1ccccc1 (configuration not stated) 0.138%, CS(=O)(=O)c1ccc(-c2cnc3c(NC=O)cc(-c4ccsc4)cn23)cc1 19.9%, O=C(c1ccc2c(c1)OCO2)N1CCCC(c2ccccc2)C1 (configuration not stated) -0.314%, CCSC1=NCCN1S(=O)(=O)c1ccc(F)cc1 0.197%, Fc1ccccc1Nc1nc2ccccc2n2nnnc12 8.47%, C=CCn1c(SCC(C)=O)nc2scc(-c3ccco3)c2c1=O 11.1%, CC(=O)Nc1ccc(S(=O)(=O)N2CCN=C2SCc2ccc(C)cc2)cc1 3.56%, CCOC(=O)c1cnc(-n2nc(C)cc2C)nc1-n1nc(C)cc1C 1.77%, Cc1nc(Cl)cc(N/N=C/c2ccc(O)cc2O)n1 13.5%, COc1ccc(C(C)(O)c2nc(-c3ccc(OC)c(OC)c3)cs2)cc1 (configuration not stated) 12.4%, N#Cc1cc2c(nc1SCc1cccnc1)CCCCC2 17.2%, COCCCNC(=S)N/N=C/c1ccc2ccccc2c1 2.83%, O=C(OCc1cc2ccccc2[nH]c1=O)C1CCCCC1 -0.361%, CC(=O)Oc1ccccc1-c1nc(C)nc(N(C)C(C)=O)n1 4.28%, CCOC(=O)c1c(C)[nH]c2cc(Br)c(O)cc12 11.9%, Cc1ccc(C(=O)NCC(C)NC(=O)c2ccc(C)c([N+](=O)[O-])c2)cc1[N+](=O)[O-] (configuration not stated) -0.417%, CCOc1ccccc1NC(=O)Cn1cnc2onc(-c3ccc(F)cc3)c2c1=O 2.73%, COc1ccc(/C(C)=N/NC(=O)c2ccc(CSc3cccc4cccnc34)cc2)cc1OC 9.56%, Cc1cc(C)n(CCOC(=O)c2sc3ccccc3c2Cl)n1 5.74%, COc1ccc(C(C)=O)cc1Cn1nc(C)c([N+](=O)[O-])c1C -0.438%, C#CCNc1nc(C(C)C)nc2c1nnn2Cc1ccccc1F 5.93%, S=c1nc(C2CCCCC2)[nH]c2ccccc12 2.94%, Cc1cc(=O)oc2c3c(cc(OCC(=O)NC(C)C)c12)OC(C)(C)CC3 6.85%, CCOC(=O)c1c(C)nn(-c2ccc(NC(=O)/C=C/C(=O)O)cc2)c1C -0.357%, CCOc1ccc(-c2nnc(NC(=O)COc3ccccc3F)o2)cc1 -1.49%, Cc1ccc(Sc2ncccc2C(=O)NC2CCCCCC2)cc1C 3.52%, O=C(CCl)Nc1nc(-c2ccco2)c(-c2ccco2)s1 3.03%, COC(=O)c1cc(CSc2nnc(NC3CCCCC3)s2)oc1C 2.1%, CCOC(=O)c1cnc2c(c(C)nn2CC)c1NC1CC1 13.8%, CC(C)Nc1nc(Cl)nc(NCCOc2ccccc2)n1 2.8%, CC(=NNC(=S)Nc1ccc(C)cc1)c1ccccn1 24.4%, c1ccc(CN2CCN(c3cnc4ccccc4n3)CC2)cc1 0.112%, CCN(CC)c1ncnc2c1cnn2Cc1ccc(C)cc1 17.3%, COC(=O)c1ccc(COC(=O)c2ccc(C)c(S(=O)(=O)N3CCCCC3)c2)cc1 0.484%, CN(C)NC(=S)NC1(C)CCS(=O)(=O)C1 (configuration not stated) 0.271%, Cc1cccc(C(=O)N2CCC[C@H]2C(=O)N2CCC[C@H]2C(=O)NCc2ccncc2)c1 -0.462%, Brc1ccc(OCCCOc2cccc3cccnc23)cc1 2.52%, CCOC(=O)C1=C(COC(=O)c2ccc(OC)c(OC)c2OC)NC(=O)NC1C (configuration not stated) 4.56%, COc1ccc(-c2nc(C#N)c(NCc3ccc(C)cc3)o2)cc1OC 26.6%, CCCCN(C)C(=O)c1cc2c(Cl)nc3ccccc3c2s1 14.4%, c1cn2c(Nc3ccc4c(c3)OCCO4)c(-c3ccc(N4CCOCC4)cc3)nc2cn1 8.37%, CCOCCCNC(=O)c1cc(Cl)c(NC(=O)C2=C(C)OCCS2)cc1OC 2.8%, O=C1CC(/C=C/c2cccnc2)=Nc2ccccc2N1 -0.561%, COCCN(CCOC)C(=O)c1cc2sc3ccccc3c2s1 0.303%, COc1cccc(C2CC(=O)Nc3cc(OC)c(OC)c(OC)c32)c1OC (configuration not stated) 0.189%, CCC(CC)C(=O)N1CCc2cc(OC)c(OC)cc2C1COc1ccc(C(=O)OC)cc1 (configuration not stated) 6.78%, COc1ccccc1OCCSc1nnnn1C1CCCCC1 1.55%, COc1cc(/C=N/NC(=O)c2ccc(CN3C(=O)c4cccc5cccc3c45)cc2)cc(OC)c1O 13.7%, N#Cc1nc(-c2ccco2)oc1N1CCc2ccccc2C1 4.04%, CC1(C)C(CSc2nc3ccccc3[nH]2)C1(Cl)Cl (configuration not stated) 18.8%, C[S+](CC[C@H](N)C(=O)O)C[C@H]1O[C@@H](n2cnc3c(N)ncnc32)[C@H](O)[C@@H]1O (some centres not stated) 5.7%, CCOC(=O)c1sc(N(Cc2ccccc2)C(=O)CSc2nnc(C3CC3)n2N)nc1C 1.05%, CSCCC(NS(=O)(=O)c1ccc2c(c1)oc(=O)n2C)C(=O)NCc1ccccc1 (configuration not stated) -0.357%, Cc1ccc(/C=N/Nc2nnc(Cl)c3ccccc23)cc1 0.523%, COc1ccc(OCc2cc(C(=O)N3CCCCCCC3)no2)c(Cl)c1 0.561%, CNc1nc(Cl)nc(NC(C)(C)C)n1 7.76%, COc1ccc(-c2cc(C(F)F)n3ncc(C(=O)N4CCc5ccccc5C4)c3n2)cc1 12.9%, CCCNC(=O)CSc1nc(COc2ccccc2)nc2ccccc12 0.346%, CC(=O)NCCC(=O)Nc1sc2c(c1-c1nc3ccccc3[nH]1)CCCC2 -0.803%, Cc1ccsc1-c1nc(CN2CCN(C)C(=O)[C@@H]2C)c(C)o1 -0.276%, COc1ccc(N2CCc3c(C)nc(SC)nc32)cc1 14.9%, CCOc1ccc(Cc2nc(N)nc(N)n2)cc1 -0.22%, COc1ccc(/C=N/N(C)C2=NS(=O)(=O)c3ccccc32)cc1OC 2.14%, CCCCCCn1c(SCC(C)C)nc2c1c(=O)[nH]c(=O)n2C 12.1%, CCOC(=O)c1sc(N)c(C(=O)OCC)c1C 5.1%, CC(C)Sc1nc2c(c(=O)[nH]c(=O)n2C)n1Cc1ccc(Cl)cc1 27.8%, O=C(CCC(=O)N1CCc2ccccc21)Nc1ccccc1 -0.0927%, COc1ccc(-c2csc(C3=C(O)CN(CCCN4CCCC4=O)C3=N)n2)cc1OC 7.13%, NS(=O)(=O)c1ccc(CNc2nc(-c3cccnc3)nc3ccccc23)cc1 8.69%, CCOC(=O)c1c(C)nc2cc(C)ccn12 2.36%, CCOC(=O)C1=C(N)OC2=C(C(=O)CC(C)(C)C2)C1c1ccc(CC)s1 (configuration not stated) -0.682%, Nc1cc2c(cc1C(=O)c1ccc(Cl)cc1)OCCO2 25%, CC1CCN(CCCNC(=O)c2cc3c(Cl)nc4ccccc4c3s2)CC1 4.09%, CCOc1ccc(-c2nc(CSc3nncs3)cs2)cc1OC 6.73%, CNS(=O)(=O)c1ccc2c3c(cccc13)C(=O)N2 6.82%, CCN1CCN(C2=C(Cl)C(=O)N(Cc3ccccc3)C2=O)CC1 4.15%, COc1cc(-c2cc3nc4ccccc4n3c(N)c2C#N)cc(OC)c1OC 11.5%, COc1ccc(-c2sc3cc(OC)c(OC)cc3c2C#CC(C)(C)O)cc1 2.66%, COc1cccc(C(C)(O)c2nc(-c3ccc(OC)c(OC)c3)cs2)c1 (configuration not stated) 12%, CCC(C)Nc1nc(N)c([N+](=O)[O-])c(Nc2ccccc2OC)n1 (configuration not stated) 25.2%, COc1ccc(CN(C(=O)c2cc(=O)c3cc(C)cc(C)c3o2)C2CCS(=O)(=O)C2)cc1 (configuration not stated) 3.75%, COc1ccc(-c2ccc(SCC(=O)N3CCCC3)nn2)cc1OC 3.81%, CCc1nc(SCCO)c2oc3ccccc3c2n1 3.96%, O=C(CNCC1CCCO1)Nc1ccccc1N1CCCCCC1 (configuration not stated) -0.276%, COc1ccc(CNC(=O)c2ccc(-c3cnn(C)c3)c3ccoc23)cc1OC 14.6%, O=C(c1ccccc1)c1cccc2ccccc12 0.431%, CCN(CC)C(=O)CCNS(=O)(=O)c1ccc(C)cc1 -1.94%, CCOC(=O)c1oc2ccc(Br)cc2c1NC(=O)CN1CCN(C)CC1 4.16%, COC(=O)c1ccc(CSc2nc(C(F)F)cc(C)c2C#N)o1 5.32%, COc1ccc(O)c(C(=O)c2cnn(-c3ccccn3)c2)c1 0.589%, COc1cccc(OC)c1C(=O)Nc1ccc(C(=O)c2ccncc2)cc1 -0.423%, N#Cc1cc([N+](=O)[O-])cnc1Nc1ccccc1 5.15%, Cc1nccn1CC1CCc2c(c3ccccc3n2C)C1=O (configuration not stated) -1.07%, Cc1oc(-c2ccc(C(=O)NCc3ccccc3Cl)cc2)nc1CN1CCc2ccccc21 -0.177%, CCOC(=O)c1[nH]c(C)c(C(=O)c2cc(F)ccc2F)c1C 17%, COCc1cccc(-c2csc(C(C)(O)c3cccc(F)c3)n2)c1 (configuration not stated) 0.448%, COc1cccc(C(=O)NCC2(c3ccc(OC)c(OC)c3)CCCC2)c1 2.91%, Cc1ccc(S(=O)(=O)n2c3ccc(Cl)cc3c3nc(C)sc32)cc1 4.2%, CCN(c1ccccc1)c1ncnc2c1cnn2-c1ccccc1 7.22%, O=C(c1cccc(Cl)c1)N1CCCC(c2ccc(Cl)cc2)=N1 19.8%, COc1cc(/C=C2\SC(=Nc3ccccc3)N(Cc3ccco3)C2=O)ccc1OC(C)C(=O)O (configuration not stated) 8.23%, Cc1nn2c(NCCOCCO)c3c(nc2c1-c1ccccc1)CCCC3 6.35%, CCOC(=O)C1(COCc2ccccc2)CCCCC1=O (configuration not stated) -0.662%

Potency, active:
COc1ccc(-c2cnc3c(NC=O)cc(-c4ccccc4OC)cn23)cc1OC 8.2 µM, C=C[C@@]1(C)CC(=O)[C@]2(O)[C@@]3(C)[C@@H](O)CCC(C)(C)[C@@H]3[C@H](OC(C)=O)[C@H](O)[C@@]2(C)O1 9.2 µM, COc1ccc(OC)c(-c2nnc3n2N=C(c2ccc(OC)c(OC)c2)CS3)c1 1.64 µM
